# The whole screen tested about 360,000 compounds, of which about 520 (0.14%) were called active. Inconclusive means that the source gave no clear call. Such entries were picked first, then a sample of the others. Calls come from the whole dose curve; as a rule, active = well fitted inhibition curve with a large enough effect; inconclusive = small, poorly fitted or top-dose-only effect; inactive = no such curve, though single readings can be large or run the other way. Potencies of inconclusive entries are left out as doubtful fits.
# Molecular target: Rap guanine nucleotide exchange factor 3 (Homo sapiens) (UniProt O95398)
# Assay: qHTS for Antagonist of cAMP-regulated guanine nucleotide exchange factor 3 (EPAC1): primary screen; note: nearly all actives have a fitted effect of over 50% in size
# Conditions: EPAC1 GEF assay, Rap1b-BODIPY-GDP exchange fluorescence; series mostly up to 115 µM
# Potency is the fitted concentration of half-maximal effect; tags give direction and shape of the fitted curve.
# Sequence of UniProt O95398 (O95398 whole entry, looked up): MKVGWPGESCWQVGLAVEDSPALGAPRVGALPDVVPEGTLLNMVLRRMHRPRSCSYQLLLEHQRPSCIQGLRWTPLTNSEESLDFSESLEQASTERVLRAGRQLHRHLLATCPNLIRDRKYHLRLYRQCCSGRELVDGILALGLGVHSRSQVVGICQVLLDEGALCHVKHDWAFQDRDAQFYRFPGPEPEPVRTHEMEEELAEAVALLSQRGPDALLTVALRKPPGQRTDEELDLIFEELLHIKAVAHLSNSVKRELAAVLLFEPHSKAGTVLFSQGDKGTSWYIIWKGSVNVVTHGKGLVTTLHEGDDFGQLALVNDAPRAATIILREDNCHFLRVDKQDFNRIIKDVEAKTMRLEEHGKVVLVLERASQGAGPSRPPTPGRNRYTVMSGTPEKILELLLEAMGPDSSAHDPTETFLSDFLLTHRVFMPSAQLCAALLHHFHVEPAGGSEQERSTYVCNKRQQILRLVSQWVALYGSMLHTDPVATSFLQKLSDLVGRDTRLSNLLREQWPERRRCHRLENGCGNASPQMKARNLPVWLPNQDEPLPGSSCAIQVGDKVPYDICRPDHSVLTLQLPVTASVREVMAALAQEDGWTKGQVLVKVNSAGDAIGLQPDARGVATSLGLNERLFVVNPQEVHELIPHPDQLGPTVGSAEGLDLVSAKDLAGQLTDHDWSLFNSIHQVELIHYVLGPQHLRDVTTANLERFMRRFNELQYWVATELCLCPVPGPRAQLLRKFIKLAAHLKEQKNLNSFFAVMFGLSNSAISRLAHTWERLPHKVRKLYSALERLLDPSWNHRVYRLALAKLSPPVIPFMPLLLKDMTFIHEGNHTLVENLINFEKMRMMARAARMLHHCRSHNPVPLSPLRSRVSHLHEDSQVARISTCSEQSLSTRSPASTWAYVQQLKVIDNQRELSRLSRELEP
row,Structure (SMILES),Potency
1,O=C(CSc1nncc2ccccc12)Nc1cccc(O)c1,"inconclusive [inhibitor, single point]"
2,Cc1cc(SCC(=O)Nc2cccc(S(N)(=O)=O)c2)c(C)cc1Br,"inconclusive [inhibitor, single point]"
3,COC(=O)C1CCN(CC(=O)Nc2ccc(C(=O)Nc3ccccc3OC)cc2)CC1,"inconclusive [inhibitor, partial curve]"
4,COc1ccccc1NS(=O)(=O)c1cc(NC(=O)C2=NNC(=O)CC2)ccc1C,"inconclusive [inhibitor, single point]"
5,C=C(C(=O)c1ccccc1)C(C)CC(=O)c1ccccc1 (centres undefined),"inconclusive [inhibitor, partial curve]"
6,COc1cc(/C=C/C(=O)NCc2cccnc2)cc(OC)c1OC,"inconclusive [inhibitor, full curve, poor fit]"
7,O=C(COC(=O)/C=C/c1cccc(Br)c1)NC1CCCCC1,"inconclusive [inhibitor, single point]"
8,Cc1[nH]n(-c2ccccc2)c(=O)c1C(c1ccc(C(=O)O)cc1)c1c(C)[nH]n(-c2ccccc2)c1=O,"inconclusive [inhibitor, single point]"
9,CCOc1ccc(N2C(=O)C3Sc4[nH]c(=O)sc4C(/C=C/c4ccccc4)C3C2=O)cc1 (centres undefined),"inconclusive [inhibitor, partial curve, poor fit]"
10,CC(=O)c1cccc(NC(=O)c2cccc3c(-c4cccnc4)coc23)c1,"inconclusive [inhibitor, single point]"
11,CCOc1cc(/C=N/N=C2/NC(=O)C(CC(=O)O)S2)ccc1OCc1ccc(Cl)cc1Cl (centres undefined),"inconclusive [inhibitor, full curve]"
12,COc1ccc(-n2nnnc2C2(C)CCC(=O)N2Cc2ccccc2)cc1 (centres undefined),inactive
13,Cc1cc2c(=O)[nH]cnc2s1,"inconclusive [inhibitor, single point]"
14,CC(=O)OCCCCCCCCCCC[N+]1(C)CCCCC1,inactive
15,CCCCN1CCc2c([nH]c3c(C)cccc23)C1=O,inactive
16,COc1cccc(CNC(=O)Nc2cccs2)c1,inactive
17,O=C(O)/C=C\C(=O)Nc1ccccc1C#Cc1ccccc1,inactive
18,CCC(=O)Nc1cccc(NC(=O)c2ccc(Br)cc2)c1,"inconclusive [inhibitor, full curve, poor fit]"
19,Cn1cc(CN(CCO)Cc2cccs2)c(-c2cccc(Cl)c2)n1,"inconclusive [inhibitor, partial curve, poor fit]"
20,O=C(Cc1ccccc1C(=O)O)Nc1cccc2ccccc12,"inconclusive [inhibitor, single point]"
21,COc1ccc(C(c2c(O)nc[nH]c2=O)c2c(O)nc[nH]c2=O)cc1,inactive
22,NC(c1ccccc1)c1csc(NC(=O)NCCc2ccccc2)n1 (centres undefined),"inconclusive [inhibitor, partial curve]"

row,Structure (SMILES),Potency
1,CN(C(=O)c1cccc(Nc2ccc(-c3ccc4c(c3)OCCO4)nn2)c1)C1CCCCC1,"inconclusive [inhibitor, single point]"
2,O=C(CCS(=O)(=O)c1ccc(Br)cc1)NCc1ccc(F)cc1,"inconclusive [inhibitor, partial curve, poor fit]"
3,CC1(Cc2ccc(OC(F)(F)F)cc2)C(=O)Nc2ccc(OC(F)(F)F)cc21 (centres undefined),"inconclusive [inhibitor, full curve, poor fit]"
4,Cc1nc2c(OCc3ccc(F)cc3)cccn2c1N(C)C(=O)CCC1CCCC1,"inconclusive [inhibitor, partial curve]"
5,Cc1ccc(NC(=O)CCc2c(C)nn(-c3ccc(N4CCCCC4)nn3)c2C)cc1F,"inconclusive [inhibitor, single point]"
6,C=CCN1C(=O)/C(=C\C(C)=C\c2ccccc2)SC1=S,"inconclusive [inhibitor, single point]"
7,C[C@H](NC(=O)C1CCN(S(=O)(=O)c2ccccc2)CC1)C(=O)NCc1ccc(Cl)cc1Cl,"inconclusive [inhibitor, single point]"
8,O=S(=O)(Nc1ccc(NS(=O)(=O)c2ccccc2)c(Cl)c1)c1ccccc1,"inconclusive [inhibitor, single point]"
9,CCOC1=C2CN(S(=O)(=O)c3ccc(C)cc3)C(c3ccccc3)CC2N(S(=O)(=O)c2ccc(C)cc2)C(c2ccc(Br)cc2)C1 (centres undefined),inactive
10,Cc1ccc(S(=O)(=O)N2CCOCC2)cc1C(=O)Nc1ccccc1N1CCOCC1,inactive
11,Cc1cc(C)nc(N/N=C/C2=C(N3CCOCC3)C(=C\c3ccc(Cl)cc3)/CC2)n1,"inconclusive [inhibitor, single point]"
12,Nc1nc(N)n(-c2ccccc2)c(=Nc2ccccc2)n1,inactive
13,NS(=O)(=O)c1ccc2c(c1)oc(=O)c1cc(S(N)(=O)=O)ccc12,inactive
14,CCCCN(CCCC)Cc1cc(=O)oc2cc(OC)ccc12,"inconclusive [inhibitor, partial curve]"
15,CS(=O)(=O)Nc1cccc(-c2cn3c(n2)SCC3)c1,"inconclusive [inhibitor, full curve, poor fit]"
16,Cc1cc(C)n(-c2ccc(F)cc2CN2CCN(C3CCCC3)C(CCO)C2)n1 (centres undefined),"inconclusive [inhibitor, single point]"
17,CCOc1ccc(CCN2C(=O)C(=O)N([C@@H](Cc3ccccc3)CN3CCC[C@H]3CN3C(=O)C(=O)NC[C@@H]3Cc3ccccc3)C[C@@H]2Cc2ccc(O)cc2)cc1,"inconclusive [inhibitor, single point]"
18,CCN(CC)c1ccc(NC(=O)COc2ccc(C#N)cc2)cc1S(=O)(=O)Nc1ccc(OC)cc1,"inconclusive [inhibitor, single point]"
19,Cc1[nH]c2ccccc2c1C(=O)CSc1ccc(Cl)cc1,"inconclusive [inhibitor, partial curve]"
20,CCCCNc1c(-c2ccc(SC3CCCCC3)cc2)nc2ccccn12,"inconclusive [inhibitor, full curve, poor fit]"
21,CCCCCCCCN1C(=O)[C@H](CC(=O)N2CCN(C(=O)c3ccco3)CC2)C[C@@]2(C(=O)OC)CCCCC=C12,"inconclusive [inhibitor, single point]"
22,COc1ccccc1NC(=S)NCCSc1ccc(C)cc1,inactive

row,Structure (SMILES),Potency
1,COc1ccc([C@H]2C[C@H](O)[C@@H](n3cc(COC(=O)c4ccccc4)nn3)CN2C(=O)C2CCCCC2)cc1,"inconclusive [inhibitor, single point]"
2,COc1ccc(NC(=O)CC2SC(N3CCCCC3)=NC2=O)cc1OC (centres undefined),"inconclusive [inhibitor, single point]"
3,O=S(=O)(O)c1cc(O)c2c(O)c(N=Nc3cc(Cl)ccc3O)c(S(=O)(=O)O)cc2c1,"inconclusive [inhibitor, partial curve]"
4,COC(=O)C1(C(=O)OC)C[C@H](c2ccccc2)N(Cc2ccccc2OC)[C@@H]1c1ccccc1,inactive
5,CN(C)c1nc(OCCNC(=O)Nc2ccccc2)nc(N2CCCCC2)n1,inactive
6,COc1ccc(NS(=O)(=O)c2cn(C)cn2)cc1Cl,inactive
7,COc1ccc(/C=C2\CN(Cc3ccccc3)C/C(=C\c3ccc(OC)c(O)c3)C2=O)cc1O,"inconclusive [inhibitor, full curve]"
8,CCOc1cc(/C=C/C(=O)O)ccc1OCCO,"inconclusive [inhibitor, partial curve, poor fit]"
9,C[C@@]12C(=O)Nc3cc(F)ccc3C(=O)N1[C@H]1c3ccccc3OC[C@@H]1[C@@H]2c1ccccc1,"inconclusive [inhibitor, full curve, poor fit]"
10,O=C(NCc1cccc(Cl)c1)c1ccc(CS(=O)Cc2ccccc2Cl)o1 (centres undefined),"inconclusive [inhibitor, single point]"
11,COc1ccc(C(C(=O)NCC2CCCO2)N(Cc2cccs2)C(=O)c2snc(C(N)=O)c2N)cc1OC (centres undefined),"inconclusive [inhibitor, single point]"
12,C=CCn1c(NC(=O)c2ccccc2Cl)c(C#N)c2nc3ccccc3nc21,"inconclusive [inhibitor, single point]"
13,O=[N+]([O-])c1cc(S(=O)(=O)N2CCCC2)ccc1NN=C1CCCCC1,inactive
14,CCOC(=O)C1(Cc2ccccc2)CCN(Cc2ccc(C3CCCCO3)s2)CC1 (centres undefined),"inconclusive [inhibitor, partial curve]"
15,Cc1nc(-c2ccccc2)c(-c2ccccc2)[nH]1,inactive
16,CCOC(=O)c1csc(NC(=O)CSc2nnnn2-c2ccc(OC)cc2)n1,inactive
17,O=C(CCCN1CCc2[nH]c3ccc(F)cc3c2C1)c1ccc(F)cc1,"inconclusive [inhibitor, partial curve, poor fit]"
18,C[C@@]12C(=O)Nc3cc(F)ccc3C(=O)N1[C@H]1c3cc(Br)ccc3OC[C@@H]1[C@@H]2c1ccccc1,inactive
19,Cc1ccc(-c2ocnc2C(=O)Nc2ccccc2NC(=O)c2ccccn2)cc1,"inconclusive [inhibitor, partial curve, poor fit]"
20,O=C(NCCCN1CCCC1=O)c1ccc2c(c1)NC(=O)c1ccccc1S2,"inconclusive [inhibitor, single point]"

# — PubChem BioAssay AID720709 (National Center for Advancing Translational Sciences (NCATS), 2013)
